{"source": "patent US20260250398A1", "about": "(ANTLERA THERAPEUTICS, published 2026)", "binders": {"B1": {"name": "CM0042 (FZD Diabody-Fc-LRP Diabody; paratopes 5019; 2539) (bispecific antibody)", "chain": "MNLLLILTFVAAAVAEFEVQLVESGGGLVQPGGSLRLSCAASGFNIGSSSIHWVRQAPGKGLEWVASIYSAFASTSYADSVKGRFTISADTSKNTAYLQMNSLRAEDTAVYYCARYHFPFGFALDYWGQGTLVTVSSGGGGSDIQMTQSPSSLSASVGDRVTITCRASQSVSSAVAWYQQKPGKAPKLLIYSASSLYSGVPSRFSGSRSGTDFTLTISSLQPEDFATYYCQQGVYLFTFGQGTKVEIKLEDKTHTKV[sequence of human IgG1 Fc with C220S (EU numbers) not given]SGSETPGTSESATPESGGGEVQLVESGGGLVQPGGSLRLSCAASGFNISYSSIHWVRQAPGKGLEWVAYISSYYGYTYYADSVKGRFTISADTSKNTAYLQMNSLRAEDTAVYYCARAHYFPWAGAMDYWGQGTLVTVSSGGGGSDIQMTQSPSSLSASVGDRVTITCRASQSVSSAVAWYQQKPGKAPKLLIYSASSLYSGVPSRFSGSRSGTDFTLTISSLQPEDFATYYCQQYSWGPFTFGQGTKVEIK"}}, "molecular_target": "T1, LRP6 (low-density lipoprotein receptor-related protein 6) (UniProt O75581 20-1370, limits assumed)", "T1 sequence (looked up)": "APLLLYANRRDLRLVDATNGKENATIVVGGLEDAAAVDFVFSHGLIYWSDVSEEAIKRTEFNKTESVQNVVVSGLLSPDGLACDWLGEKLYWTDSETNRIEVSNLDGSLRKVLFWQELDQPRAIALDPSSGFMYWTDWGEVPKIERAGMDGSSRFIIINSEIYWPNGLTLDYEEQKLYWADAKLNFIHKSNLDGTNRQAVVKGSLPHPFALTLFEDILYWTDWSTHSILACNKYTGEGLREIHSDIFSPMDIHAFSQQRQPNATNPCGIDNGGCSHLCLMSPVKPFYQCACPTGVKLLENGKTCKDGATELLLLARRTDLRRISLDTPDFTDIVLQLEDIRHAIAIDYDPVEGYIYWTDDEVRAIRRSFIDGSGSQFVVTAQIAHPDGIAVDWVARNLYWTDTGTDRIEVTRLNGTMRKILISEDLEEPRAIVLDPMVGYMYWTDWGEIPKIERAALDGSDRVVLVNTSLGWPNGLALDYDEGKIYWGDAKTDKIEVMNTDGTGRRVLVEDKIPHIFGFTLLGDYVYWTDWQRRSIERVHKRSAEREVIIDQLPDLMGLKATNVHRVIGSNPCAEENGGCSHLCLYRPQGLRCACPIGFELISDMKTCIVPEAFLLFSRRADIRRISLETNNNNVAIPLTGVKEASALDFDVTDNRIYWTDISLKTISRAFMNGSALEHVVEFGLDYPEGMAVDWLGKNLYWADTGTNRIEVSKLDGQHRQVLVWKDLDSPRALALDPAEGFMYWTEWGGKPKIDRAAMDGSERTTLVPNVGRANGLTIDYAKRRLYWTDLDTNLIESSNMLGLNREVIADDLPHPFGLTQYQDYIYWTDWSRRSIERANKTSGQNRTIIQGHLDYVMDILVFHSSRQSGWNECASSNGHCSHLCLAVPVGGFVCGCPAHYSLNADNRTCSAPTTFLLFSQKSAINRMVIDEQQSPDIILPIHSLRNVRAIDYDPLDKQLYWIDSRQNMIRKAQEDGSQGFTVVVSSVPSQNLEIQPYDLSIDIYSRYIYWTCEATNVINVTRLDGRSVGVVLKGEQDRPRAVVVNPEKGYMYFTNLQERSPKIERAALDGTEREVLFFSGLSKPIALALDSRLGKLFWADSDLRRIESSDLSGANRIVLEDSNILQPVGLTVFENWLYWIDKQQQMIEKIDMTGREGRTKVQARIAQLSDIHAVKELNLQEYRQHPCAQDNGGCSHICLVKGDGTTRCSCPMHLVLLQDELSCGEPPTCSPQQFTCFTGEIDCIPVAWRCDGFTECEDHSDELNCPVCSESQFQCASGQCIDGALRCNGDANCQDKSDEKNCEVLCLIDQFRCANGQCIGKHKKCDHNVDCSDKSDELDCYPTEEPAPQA", "experiment": "cell-based or functional assay", "data": [{"binder": "B1", "values": [{"measurement": "TOPFLASH % Wnt Maxima", "value": 33, "unit": "% Wnt Maxima"}]}]}
